# Test results taken from US6750034B1, “DNA encoding human serine protease D-G” (Ortho-McNeil Pharmaceutical, Inc., priority 2000, dated 2004).
# B1: PFEK-protease D-G-6×HIS zymogen: recombinant protease D-G catalytic domain in zymogen activation construct (prolactin signal, FLAG, enterokinase site, 6×HIS), expressed in Sf9 cells (protein)
# chain: MDSKGSSQKSRLLLLLVVSNLLLCQGVVSDYKDDDDVDAAALAAPFDDDDKIVGGYALDVDSWPWQVSIQYDKQHVCGGSILDPHWVLTAAHCFRKHTDVFNWKVRAGSDKLGSFPSLAVAKIIIIEFNPMYPKDNDIALMKLQFPLTFSGTVRPICLPFFDEELTPATPLWIIGWGFTKQNGGKMSDILLQASVQVIDSTRCNADDAYQGEVTEKMMCAGIPEGGVDTCQGDSGGPLMYQSDQWHVVGIVSWGYGCGGPSTPGVYTKVSAYLNWIYNVWKAELSRHHHHHH
# Test: Chromogenic amidolytic assay of the unactivated zymogen
# Assay type: biochemical
# Conditions: purified unactivated zymogen, not cleaved by enterokinase
# Protocol: Amidolytic activities of the activated serine proteases are monitored by release of para-nitroaniline (pNA) from synthetic substrates that are commercially available (Bachem California Inc., Torrance, […].; American Diagnostica Inc., Greenwich, Conn.; Kabi Pharmacia Hepar Inc., Franklin, Ohio). Assay mixtures contain chromogenic substrates in 500 uM and 10 mM TRIS-HCl (pH 7.8), 25 mM NaCl, and 25 mM imidazole. Release of pNA is measured over 120 min at 37° C. on a micro-plate reader (Molecular Devices, Menlo Park, Calif.) with a 405 nm absorbance filter. The initial reaction rates (Vmax, mOD/min) are determined from plots of absorbance versus time using Softmax (Molecular Devices, Menlo Park, Calif.). The specific activities (nmole pNA produced/min/ug protein) of the activated protease D-G-6×HIS for the various substrates are presented in Table 1.
molecule,measurement,value
B1,chromogenic amidolytic activity,No measurable chromogenic amidolytic activity
